{
  "source": "the supplement of paper PMC8728848",
  "assay_in_all_cases": "glycan array binding signal (z-score within array); higher = stronger binding",
  "settings_in_all_cases": "glycan notation: IUPAC condensed, linker removed",
  "key": {"[1]": {"target": "Neu5Ac(a2-6)Gal(b1-4)GlcNAc(b1-2)Man(a1-3)[Neu5Ac(a2-3)Gal(b1-4)GlcNAc(b1-2)Man(a1-6)]Man(b1-4)GlcNAc(b1-4)GlcNAc", "method_in_brief": "(§1)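 The binding signal is a Z-score computed within each array. Data were drawn from 3228 arrays in the Consortium for Functional Glycomics database, restricted to those with a known protein sequence. Scores were averaged over arrays of the same protein sequence at different concentrations or buffers, and over linkers, and negative values can be taken as non-binding.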"}, "[2]": {"target": "Neu5Ac(a2-6)Gal(b1-4)GlcNAc(b1-2)Man(a1-3)[Neu5Ac(a2-6)Gal(b1-4)GlcNAc(b1-2)Man(a1-6)]Man(b1-4)GlcNAc(b1-4)GlcNAc", "method_in_brief": "as §1"}, "[3]": {"target": "Neu5Ac(a2-6)Gal(b1-4)GlcNAc(b1-2)Man(a1-3)[Neu5Ac(a2-6)Gal(b1-4)GlcNAc(b1-2)Man(a1-6)]Man(b1-4)GlcNAc(b1-4)[Fuc(a1-6)]GlcNAc", "method_in_brief": "as §1"}, "[4]": {"target": "Neu5Ac(a2-6)Gal(b1-4)GlcNAc(b1-2)Man(a1-6)Man(b1-4)GlcNAc(b1-4)GlcNAc", "method_in_brief": "as §1"}, "[5]": {"target": "Neu5Ac(a2-6)Gal(b1-4)GlcNAc(b1-2)Man(a1-6)[Gal(b1-4)GlcNAc(b1-2)Man(a1-3)]Man(b1-4)GlcNAc(b1-4)GlcNAc", "method_in_brief": "as §1"}, "[6]": {"target": "Neu5Ac(a2-6)Gal(b1-4)GlcNAc(b1-2)Man(a1-6)[GlcNAc(b1-2)Man(a1-3)]Man(b1-4)GlcNAc(b1-4)GlcNAc", "method_in_brief": "as §1"}, "[7]": {"target": "Neu5Ac(a2-6)Gal(b1-4)GlcNAc(b1-2)Man(a1-6)[Man(a1-3)]Man(b1-4)GlcNAc(b1-4)GlcNAc", "method_in_brief": "as §1"}, "[8]": {"target": "Neu5Ac(a2-6)Gal(b1-4)GlcNAc(b1-2)[Neu5Ac(a2-6)Gal(b1-4)GlcNAc(b1-4)]Man(a1-3)[GlcNAc(b1-4)][Neu5Ac(a2-6)Gal(b1-4)GlcNAc(b1-2)[Neu5Ac(a2-6)Gal(b1-4)GlcNAc(b1-6)]Man(a1-6)]Man(b1-4)GlcNAc(b1-4)GlcNAc", "method_in_brief": "as §1"}, "[9]": {"target": "Neu5Ac(a2-6)Gal(b1-4)GlcNAc(b1-2)[Neu5Ac(a2-6)Gal(b1-4)GlcNAc(b1-4)]Man(a1-3)[GlcNAc(b1-4)][Neu5Ac(a2-6)Gal(b1-4)GlcNAc(b1-4)Man(a1-6)]Man(b1-4)GlcNAc(b1-4)GlcNAc", "method_in_brief": "as §1"}, "[10]": {"target": "Neu5Ac(a2-6)Gal(b1-4)GlcNAc(b1-2)[Neu5Ac(a2-6)Gal(b1-4)GlcNAc(b1-6)]Man(a1-6)[Neu5Ac(a2-6)Gal(b1-4)GlcNAc(b1-2)Man(a1-3)][GlcNAc(b1-4)]Man(b1-4)GlcNAc(b1-4)GlcNAc", "method_in_brief": "as §1"}, "[11]": {"target": "Neu5Ac(a2-6)Gal(b1-4)GlcNAc(b1-3)Gal(b1-3)GlcNAc", "method_in_brief": "as §1"}, "[12]": {"target": "Neu5Ac(a2-6)Gal(b1-4)GlcNAc(b1-3)Gal(b1-4)GlcNAc", "method_in_brief": "as §1"}, "[13]": {"target": "Neu5Ac(a2-6)Gal(b1-4)GlcNAc(b1-3)Gal(b1-4)GlcNAc(b1-2)Man(a1-3)[Neu5Ac(a2-6)Gal(b1-4)GlcNAc(b1-3)Gal(b1-4)GlcNAc(b1-2)Man(a1-6)]GalNAc", "method_in_brief": "as §1"}, "[14]": {"target": "Neu5Ac(a2-6)Gal(b1-4)GlcNAc(b1-3)Gal(b1-4)GlcNAc(b1-3)Gal(b1-4)GlcNAc", "method_in_brief": "as §1"}, "[15]": {"target": "Neu5Ac(a2-6)Gal(b1-4)GlcNAc(b1-3)Gal(b1-4)GlcNAc(b1-3)Gal(b1-4)GlcNAc(b1-2)Man(a1-3)[Neu5Ac(a2-6)Gal(b1-4)GlcNAc(b1-3)Gal(b1-4)GlcNAc(b1-3)Gal(b1-4)GlcNAc(b1-2)Man(a1-6)]GalNAc", "method_in_brief": "as §1"}, "[16]": {"target": "Neu5Ac(a2-6)Gal(b1-4)GlcNAc(b1-3)Gal(b1-4)GlcNAc(b1-3)GalNAc", "method_in_brief": "as §1"}, "[17]": {"target": "Neu5Ac(a2-6)Gal(b1-4)GlcNAc(b1-3)Gal(b1-4)GlcNAc(b1-3)[Neu5Ac(a2-6)Gal(b1-4)GlcNAc(b1-3)Gal(b1-4)GlcNAc(b1-6)]GalNAc", "method_in_brief": "as §1"}, "[18]": {"target": "Neu5Ac(a2-6)Gal(b1-4)GlcNAc(b1-3)Gal(b1-4)GlcNAc(b1-6)[Gal(b1-3)]GalNAc", "method_in_brief": "as §1"}, "[19]": {"target": "Neu5Ac(a2-6)Gal(b1-4)GlcNAc(b1-3)Gal(b1-4)[Fuc(a1-3)]GlcNAc(b1-3)Gal(b1-4)[Fuc(a1-3)]GlcNAc", "method_in_brief": "as §1"}, "[20]": {"target": "Neu5Ac(a2-6)Gal(b1-4)GlcNAc(b1-3)GalNAc", "method_in_brief": "as §1"}, "[21]": {"target": "Neu5Ac(a2-6)Gal(b1-4)GlcNAc(b1-3)[Neu5Ac(a2-6)Gal(b1-4)GlcNAc(b1-6)]GalNAc", "method_in_brief": "as §1"}, "[22]": {"target": "Neu5Ac(a2-6)Gal(b1-4)GlcNAc(b1-6)GalNAc", "method_in_brief": "as §1"}, "[23]": {"target": "Neu5Ac(a2-6)Gal(b1-4)GlcNAc(b1-6)[Gal(b1-3)GlcNAc(b1-3)]Gal(b1-4)Glc", "method_in_brief": "as §1"}, "[24]": {"target": "Neu5Ac(a2-6)Gal(b1-4)GlcNAc(b1-6)[Gal(b1-3)]GalNAc", "method_in_brief": "as §1"}, "[25]": {"target": "Neu5Ac(a2-6)Gal(b1-4)GlcNAc6S", "method_in_brief": "as §1"}, "Neu5Ac(a2-6)GalNAc": {"target": "Neu5Ac(a2-6)GalNAc", "method_in_brief": "as §1"}, "[26]": {"target": "Neu5Ac(a2-6)GalNAc(b1-4)GlcNAc", "method_in_brief": "as §1"}, "[27]": {"target": "Neu5Ac(a2-6)GalNAc(b1-4)GlcNAc6S", "method_in_brief": "as §1"}, "[28]": {"target": "Neu5Ac(a2-6)GlcNAc(b1-4)GlcNAc", "method_in_brief": "as §1"}, "[29]": {"target": "Neu5Ac(a2-6)GlcNAc(b1-4)GlcNAc(b1-4)GlcNAc", "method_in_brief": "as §1"}},
  "note": "This is one part of the list.",
  "data": [
    {"binder": "CPA (Cicer arietinum) (protein) MAFSYLNLVLVTLTTLFFLQTTKVKSQKSVSFHITNFTISRPSITLQGTAEFLPNVLLLNDIEHPVFVVGRALYSKPITLWNNKTGKVASFVTSFTFDVQDLKKTVPGHGLVFFLAPSGSEIPFSSDGGNLGVVDGKNAFNRFVGVEFDNFVNSWDPKYSHVGINVNSLISTKTVKWNRVSGELVKVSIVYDSVSTTLTVIVTYKNGQISILSQLVDLKAVLPDTVNIGFSASTTLVSPRQLHNIHSWSFTSTFET", "values": [
      {"measurement": "glycan array binding signal (z-score)", "setting": "[1]", "result": -0.601},
      {"measurement": "glycan array binding signal (z-score)", "setting": "[2]", "result": -0.503},
      {"measurement": "glycan array binding signal (z-score)", "setting": "[3]", "result": 0.327},
      {"measurement": "glycan array binding signal (z-score)", "setting": "[4]", "result": -0.505},
      {"measurement": "glycan array binding signal (z-score)", "setting": "[5]", "result": -0.257},
      {"measurement": "glycan array binding signal (z-score)", "setting": "[6]", "result": -0.498},
      {"measurement": "glycan array binding signal (z-score)", "setting": "[7]", "result": -0.538},
      {"measurement": "glycan array binding signal (z-score)", "setting": "[8]", "result": -0.605},
      {"measurement": "glycan array binding signal (z-score)", "setting": "[9]", "result": -0.591},
      {"measurement": "glycan array binding signal (z-score)", "setting": "[10]", "result": -0.405},
      {"measurement": "glycan array binding signal (z-score)", "setting": "[11]", "result": -0.331},
      {"measurement": "glycan array binding signal (z-score)", "setting": "[12]", "result": -0.648},
      {"measurement": "glycan array binding signal (z-score)", "setting": "[13]", "result": 0.208},
      {"measurement": "glycan array binding signal (z-score)", "setting": "[14]", "result": -0.108},
      {"measurement": "glycan array binding signal (z-score)", "setting": "[15]", "result": 2.33},
      {"measurement": "glycan array binding signal (z-score)", "setting": "[16]", "result": -0.593},
      {"measurement": "glycan array binding signal (z-score)", "setting": "[17]", "result": 3.34},
      {"measurement": "glycan array binding signal (z-score)", "setting": "[18]", "result": 0.746},
      {"measurement": "glycan array binding signal (z-score)", "setting": "[19]", "result": -0.338},
      {"measurement": "glycan array binding signal (z-score)", "setting": "[20]", "result": -0.512},
      {"measurement": "glycan array binding signal (z-score)", "setting": "[21]", "result": -0.588},
      {"measurement": "glycan array binding signal (z-score)", "setting": "[22]", "result": -0.136},
      {"measurement": "glycan array binding signal (z-score)", "setting": "[23]", "result": 0.044},
      {"measurement": "glycan array binding signal (z-score)", "setting": "[24]", "result": -0.326},
      {"measurement": "glycan array binding signal (z-score)", "setting": "[25]", "result": -0.453},
      {"measurement": "glycan array binding signal (z-score)", "setting": "Neu5Ac(a2-6)GalNAc", "result": -0.383},
      {"measurement": "glycan array binding signal (z-score)", "setting": "[26]", "result": 1.26},
      {"measurement": "glycan array binding signal (z-score)", "setting": "[27]", "result": -0.452},
      {"measurement": "glycan array binding signal (z-score)", "setting": "[28]", "result": 0.309},
      {"measurement": "glycan array binding signal (z-score)", "setting": "[29]", "result": 2.61}
    ]}
  ]
}
